PubChem BioAssay AID463173 (ICCB-Longwood Screening Facility, Harvard Medical School, 2010)
The campaign covered roughly 52,000 compounds. About 1,700 (3.3%) were called active. Cut-off read from the data, not from the text of the source: active = survival mostly below about 52% (no sharp cut-off); inactive = mostly above about 56%. Some of the results follow.

test system: Wild type; experiment: S. aureus survival, RN4220 and DeltatarO strains – OD600, teichoic acid synthesis inhibitors, primary screen (AID 463173); details: S. aureus RN4220 wild type/DeltatarO growth, OD600, 18 h, stronger effect = lower value, screened at 18.75 µg/mL (by protocol)

Row | Structure (SMILES) | survival
1 | COc1ccccc1NC(=O)CSc1nc2nccnc2c(=O)n1CCc1c[nH]c2ccccc12 | inactive: 73%
2 | Cc1cccn2c(Nc3ccccc3)c(-c3cccs3)nc12 | inactive: 85%
3 | COc1cccc(CNC(=O)Cc2ccc(NC(=O)N3CCSc4ncccc43)cc2)c1OC | inactive: 72%
4 | Cc1[nH]c2ccccc2c1C(c1ccccc1)c1ccc(Cl)s1 (stereo not given) | inactive: 18%
5 | Cc1ccccc1CNc1nc(N(C)C)nc2c1cnn2C | inactive: 71%
6 | Cc1ccc(NC(=O)C2CCN(S(=O)(=O)c3ccc4[nH]c(=O)ccc4c3)CC2)cc1C | inactive: 89%
7 | O=C1CC(Sc2ccccc2)C(=O)N1c1ccccc1 (stereo not given) | inactive: 99%
8 | CCCc1cc(N2CCN(c3ccccc3)CC2)n2cnnc2n1 | inactive: 78%
9 | CCc1ccc(CN(Cc2ccco2)c2cnc(S(C)(=O)=O)nc2C(=O)Nc2c(C)cccc2C)cc1 | inactive: 70%
10 | CCOc1ccc(CCNC(=O)Cn2c(-c3cccs3)cc3cc(F)ccc32)cc1OCC | inactive: 82%
11 | CCc1cccc(CC)c1NC(=O)Cn1c(=O)c(-c2cc(C)ccc2NC(C)=O)nc2ccccc21 | inactive: 88%
12 | Cn1c(CSc2nc3ccccc3s2)nnc1SCC(=O)NCCCN1CCOCC1 | inactive: 99%
13 | O=C1COc2cc(S(=O)(=O)CCC(=O)N3CCN(c4ccccc4F)CC3)c(Cl)cc2N1 | inactive: 81%
14 | Cn1c(=NC(=O)c2ccc(S(=O)(=O)N3CCCC3)cc2)sc2cc(F)ccc21 | inactive: 156%
15 | CCc1ccccc1NCc1nnc2n1CCCCC2 | inactive: 87%
16 | CCOc1ccccc1NC(=O)C1CCN(S(=O)(=O)c2cc(Br)cc3c2N(C(C)=O)CC3)CC1 | inactive: 82%
17 | COc1cccc(CN2CCCN(CC(=O)Nc3ccc4c(c3)OCCO4)S2(=O)=O)c1 | inactive: 71%
18 | Cc1ccc(-c2nnc(SCC(=O)c3ccc(Cl)cc3)n2-c2ccccc2)cc1 | inactive: 94%
19 | Cc1cccc(N2CCN(S(=O)(=O)c3ccc4c(c3)C(C(C)C)C(=O)N4)CC2)c1C (stereo not given) | inactive: 66%
20 | CCNC(=S)N(Cc1ccccc1)Cc1nc2ccccc2c(=O)[nH]1 | inactive: 100%
21 | Cc1nc2nc(NC(=O)c3ccc(C(C)(C)C)cc3)[nH]n2c(=O)c1Cl | inactive: 101%
22 | Cc1oc(-c2ccccc2F)nc1CSCC(=O)N1CCN(c2ccccc2)CC1 | inactive: 62%
23 | COc1cccc(N(Cc2nnc3n2CCCCC3)C(=O)Nc2ccccc2)c1 | inactive: 131%

Row | Structure (SMILES) | survival
24 | CCOc1ccc(CNC(=O)c2ccc3c(c2)N(CC)CCS3)cc1 | inactive: 92%
25 | CCCCOc1ccc(C(=O)NCCc2sc(-c3ccc(OC)c(OC)c3)nc2C)cc1 | inactive: 81%
26 | CN(c1ccccc1)C(c1ccc(F)cc1)c1nnnn1C1CCCC1 (stereo not given) | inactive: 111%
27 | COc1ccc(N2CCN(C(=O)CSc3c4c(nc5ccc(Cl)cc35)CCCC4)CC2)cc1 | inactive: 46%
28 | O=C(Nc1cccc(O)c1)c1cc2nc(-c3ccc(Br)cc3)cc(C(F)(F)F)n2n1 | inactive: 129%
29 | CC1(C)NCCNC1=O | inactive: 119%
30 | COc1cc(NC(=O)CC2C(=O)N(c3cccc(C)c3)C(=O)N2Cc2ccco2)cc(OC)c1 (stereo not given) | inactive: 95%
31 | COc1ccc(S(=O)(=O)c2c(Nc3c(C)cccc3C)sc(C(=O)c3ccc4c(c3)OCO4)c2N)cc1 | inactive: 74%
32 | Cc1ccc(-n2nc3c(=O)n(CC(=O)NC(C)C)nc(C)c3c2C)cc1 | inactive: 65%
33 | COc1ccc(CN(C)c2ccc(-c3nc(-c4ccccc4)no3)cc2[N+](=O)[O-])cc1 | inactive: 80%
34 | COc1cccc(CCNC(=O)c2cnc3sc(N4CCCCCC4)nn3c2=O)c1 | inactive: 80%
35 | O=C(Nc1ccc2oc(-c3cccnc3)nc2c1)c1ccc(-c2cccc(Cl)c2)o1 | inactive: 77%
36 | CC1CCCN(c2ccc(C(=O)NCCc3ccccc3)cn2)C1 (stereo not given) | inactive: 105%
37 | CCC(CC)C(=O)Nc1ccc2nc(SCc3ccccc3)sc2c1 | inactive: 88%
38 | COc1ccc2c(CC(=O)Nc3ccc(C)cc3)coc2c1 | inactive: 90%
39 | Cc1cccc(Nc2ncc(NC(=O)c3cccc(F)c3)c(Nc3cccc(C)c3)n2)c1 | inactive: 86%
40 | CS(=O)(=O)c1ncc(Cl)c(C(=O)Nc2c(C(=O)Nc3ccccc3)oc3ccccc23)n1 | inactive: 87%
41 | O=C(CSc1nnc(-c2ccncc2)n1-c1ccccc1)Nc1ccc(Cl)c(Cl)c1 | inactive: 71%
42 | Cc1nc2c(cnn2-c2ccccc2)c(=O)n1-c1ccccc1 | inactive: 126%
43 | O=C(Cn1c(-c2cccs2)cc2ccccc21)N1CCN(c2ccccc2F)CC1 | inactive: 138%
44 | COc1ccc(NC(=O)CSC2=Nc3ccccc3C3=NC(CC(=O)NCc4ccco4)C(=O)N23)cc1 (stereo not given) | inactive: 66%
45 | CCN(C(=O)CSc1nnc(-c2cc(OC)c(OC)c(OC)c2)o1)c1ccccc1 | inactive: 87%
46 | Clc1ccc(CCNc2nc3ccccc3c3nc(-c4ccccc4)nn23)cc1 | inactive: 38%

Row | Structure (SMILES) | survival
47 | Cc1cc(C)nc(N(C#N)CC(=O)c2ccccc2)n1 | inactive: 121%
48 | CCOc1ccc(NC(=O)Cn2cc(C(=O)c3cccs3)c3ccccc32)cc1 | inactive: 75%
49 | CC(OC(=O)c1cc2sccc2n1C)C(=O)NCC1CCCO1 (stereo not given) | inactive: 107%
50 | CCOc1cccc(CC(=O)NCc2ccc3c(c2)CCN3C(=O)c2ccc(F)cc2)c1OCC | inactive: 71%
51 | Cc1ccc(C(=O)N(Cc2ccco2)Cc2ccco2)cc1 | inactive: 82%
52 | CCOc1cc(CNC(=O)c2ccccc2NC(=O)c2nsc3ccccc23)ccc1OC | inactive: 72%
53 | O=C(CSc1nc2ncccc2[nH]1)Nc1cc(F)ccc1F | inactive: 75%
54 | O=C(CCn1c(=O)c2cccn2c2cccnc21)NCc1ccccc1Cl | inactive: 86%
55 | CCOc1ccc(C(=O)c2cn(CC(=O)Nc3ccc4c(c3)OCO4)c3ccc(OC)cc3c2=O)cc1 | inactive: 95%
56 | O=C(NCC(c1cccnc1)N1CCN(c2ccccc2F)CC1)C(=O)Nc1ccc(F)cc1F (stereo not given) | inactive: 89%
57 | COc1cccc(N2CCN(C(=O)C3CCCN(S(=O)(=O)c4cccc5nsnc45)C3)CC2)c1 (stereo not given) | inactive: 80%
58 | Cc1ccc(CNC(=O)CCc2c(C)nn(-c3ccc(N4CCOCC4)nn3)c2C)cc1 | inactive: 135%
59 | COc1ccc2[nH]c3c(c2c1)CCn1c-3nc2ccccc2c1=O | inactive: 114%
60 | O=C(Nc1cccc(Cl)c1)C1CCCN(c2nn3cc(-c4ccc(F)cc4)nc3s2)C1 (stereo not given) | inactive: 68%
61 | CCn1c(=O)n(-c2ccc3c(c2)OCO3)c2nc(-c3ccc(C(C)C)cc3)nc(C(N)=O)c21 | inactive: 130%
62 | CCOc1ccc2c(c1)c(=O)c(C(=O)c1ccc(CC)cc1)cn2CC(=O)Nc1ccccc1OC | inactive: 78%
63 | COc1ccc(OC)c(NC(=O)Cn2c(=O)c3cccn3c3ccccc32)c1 | inactive: 75%
64 | Cc1cc(C)nc(SCc2nnc(SCC(=O)N3c4ccccc4Sc4ccc(Cl)cc43)o2)n1 | inactive: 111%
65 | Cc1ccc(Cl)cc1NC(=O)CSc1nc2ccccc2c2nc(-c3ccccc3)nn12 | inactive: 126%
66 | CCOC(=O)C1CCN(C(=O)c2nn(-c3ccc(OC)c(Cl)c3)c(=O)c3c2c2ccccc2n3C)CC1 | inactive: 68%
67 | CCOc1ccc(C(=O)Nc2cc(-c3nc4cc(OC)ccc4o3)ccc2C)cc1[N+](=O)[O-] | inactive: 85%
68 | Cc1ccc(S(=O)(=O)c2cn(CC(=O)Nc3cccc(Cl)c3)c3ccccc3c2=O)cc1 | inactive: 91%
69 | O=C(Cn1cc(C(=O)C(F)(F)F)c2ccccc21)N1CCCCCC1 | inactive: 74%

Row | Structure (SMILES) | survival
70 | CC1(C)N=C(SCc2ccc(F)cc2)c2ccccc2N1 | inactive: 153%
71 | CCOc1ccccc1NC1(c2ccccc2)C(=O)c2ccccc2C1=O | inactive: 78%
72 | CC1CCCCN1CCCNC(=O)c1cc(Sc2cccc(Cl)c2)nc2ccccc12 (stereo not given) | inactive: 54%
73 | Cc1ccccc1CN1c2ccccc2-c2nc(SCC(=O)c3ccccc3)ncc2S1(=O)=O | inactive: 66%
74 | CCC(=O)N(Cc1ccco1)c1nc(-c2ccccc2)cs1 | inactive: 104%
75 | O=C(COc1ccc2ccccc2c1)NC1CC(=O)N(c2ccc(F)cc2)C1 (stereo not given) | inactive: 68%
76 | COc1ccc(NC(=O)C2CCCCN2)cc1OC (stereo not given) | inactive: 105%
77 | Cc1ccccc1OCc1nc2c3cnn(-c4cccc(F)c4)c3ncn2n1 | inactive: 93%
78 | Cc1c(CNC2CCCCC2)c(C(=O)O)c(C)n1Cc1ccccc1F | inactive: 88%
79 | CCNC(=O)c1ccc2c(c1)nc1n2CCCCC1 | inactive: 89%
80 | CCNC(=O)c1c(NC(=O)Cc2coc3ccc(CC)cc23)sc2c1CCCC2 | inactive: 92%
81 | O=C1CCCc2nc(N3CCOCC3)sc21 | inactive: 89%
82 | CCCCNC(=O)c1c(-c2ccccc2)c(-c2ccccc2)nn(C)c1=O | inactive: 84%
83 | Cc1oc2ncn(CC(C)C)c(=O)c2c1C(=O)N(CCN(C)C)Cc1ccccc1 | inactive: 99%
84 | Cc1ccc2c(c1)N(C(=O)N1CCC(C(=O)NCc3ccccc3C)CC1)CC(C)O2 (stereo not given) | inactive: 90%
85 | CCCCNC(=O)c1ccc2c(c1)N(CC)C(=O)c1ccccc1S2 | inactive: 135%
86 | COc1cccc(-n2cnc3scc(-c4cccs4)c3c2=O)c1 | inactive: 113%
87 | COc1cccc(C2C(C(=O)Nc3ccc(Cl)cc3)=C(C)Nc3nc4ccccc4n32)c1OC (stereo not given) | inactive: 106%
88 | CC(=O)N1CCCc2cc(S(=O)(=O)N3CCN(c4ccccc4F)CC3)ccc21 | inactive: 45%
89 | CCOC(=O)c1c(C)n(-c2ccccc2)c2ccc(OC(=O)COc3ccccc3)cc12 | inactive: 76%
90 | COc1ccc(N2CCN(C(=O)C3CCCN(C(=O)c4cc5sccc5n4C)C3)CC2)cc1 (stereo not given) | inactive: 130%
